Some of the results follow.
Key:
Assay in all cases: glycan array binding signal (z-score within array); higher = stronger binding
Details in all cases: glycan notation: IUPAC condensed, linker removed
Gal(a1-4)Gal(b1-4)GlcNAc = target: Gal(a1-4)Gal(b1-4)GlcNAc
In short: (§1)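 The binding signal is a Z-score computed within each array. Data were drawn from 3228 arrays in the Consortium for Functional Glycomics database, restricted to those with a known protein sequence. Scores were averaged over arrays of the same protein sequence at different concentrations or buffers, and over linkers, and negative values can be taken as non-binding.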

[1] = target: Gal(a1-4)Gal(b1-4)GlcNAc(b1-2)Man(a1-3)[Gal(a1-4)Gal(b1-4)GlcNAc(b1-2)Man(a1-6)]Man(b1-4)GlcNAc(b1-4)GlcNAc
In short: as §1

[2] = target: Gal(a1-4)Gal(b1-4)GlcNAc(b1-3)Gal(b1-4)Glc
In short: as §1

Gal(a1-4)GlcNAc = target: Gal(a1-4)GlcNAc
In short: as §1

Gal(a1-6)Glc = target: Gal(a1-6)Glc
In short: as §1

Gal(b1-2)Gal = target: Gal(b1-2)Gal
In short: as §1

Gal(b1-3)Gal = target: Gal(b1-3)Gal
In short: as §1

Gal(b1-3)Gal(b1-4)GlcNAc = target: Gal(b1-3)Gal(b1-4)GlcNAc
In short: as §1

[3] = target: Gal(b1-3)Gal(b1-4)GlcNAc(b1-2)Man(a1-3)[Gal(b1-3)Gal(b1-4)GlcNAc(b1-2)Man(a1-6)]Man(b1-4)GlcNAc(b1-4)GlcNAc
In short: as §1

Gal(b1-3)GalNAc = target: Gal(b1-3)GalNAc
In short: as §1

[4] = target: Gal(b1-3)GalNAc(a1-3)[Fuc(a1-2)]Gal(b1-4)Glc
In short: as §1

[5] = target: Gal(b1-3)GalNAc(a1-3)[Fuc(a1-2)]Gal(b1-4)GlcNAc
In short: as §1

Gal(b1-3)GalNAc(b1-3)Gal = target: Gal(b1-3)GalNAc(b1-3)Gal
In short: as §1

[6] = target: Gal(b1-3)GalNAc(b1-3)Gal(a1-4)Gal(b1-4)Glc
In short: as §1

[7] = target: Gal(b1-3)GalNAc(b1-3)Gal(b1-4)Glc
In short: as §1

[8] = target: Gal(b1-3)GalNAc(b1-3)Gal(b1-4)GlcNAc
In short: as §1

[9] = target: Gal(b1-3)GalNAc(b1-4)Gal(b1-4)Glc
In short: as §1

[10] = target: Gal(b1-3)GalNAc(b1-4)[Neu5Ac(a2-3)]Gal(b1-4)Glc
In short: as §1

Gal(b1-3)GlcNAc = target: Gal(b1-3)GlcNAc
In short: as §1

[11] = target: Gal(b1-3)GlcNAc(a1-3)Gal(b1-4)GlcNAc
In short: as §1

[12] = target: Gal(b1-3)GlcNAc(a1-6)Gal(b1-4)GlcNAc
In short: as §1

Gal(b1-3)GlcNAc(b1-2)Man = target: Gal(b1-3)GlcNAc(b1-2)Man
In short: as §1

[13] = target: Gal(b1-3)GlcNAc(b1-2)Man(a1-3)[Gal(b1-3)GlcNAc(b1-2)Man(a1-6)]Man(b1-4)GlcNAc(b1-4)GlcNAc
In short: as §1

[14] = target: Gal(b1-3)GlcNAc(b1-2)Man(a1-3)[Gal(b1-3)GlcNAc(b1-2)Man(a1-6)]Man(b1-4)GlcNAc(b1-4)[Fuc(a1-6)]GlcNAc
In short: as §1

[15] = target: Gal(b1-3)GlcNAc(b1-2)Man(a1-3)[GlcNAc(b1-4)][Gal(b1-3)GlcNAc(b1-2)Man(a1-6)]Man(b1-4)GlcNAc(b1-4)GlcNAc
In short: as §1

[16] = target: Gal(b1-3)GlcNAc(b1-2)[Gal(b1-3)GlcNAc(b1-6)]Man(a1-6)[Gal(b1-3)GlcNAc(b1-2)Man(a1-3)]Man(b1-4)GlcNAc(b1-4)GlcNAc
In short: as §1

[17] = target: Gal(b1-3)GlcNAc(b1-3)Gal(b1-3)GlcNAc
In short: as §1

[18] = target: Gal(b1-3)GlcNAc(b1-3)Gal(b1-4)Glc
In short: as §1

[19] = target: Gal(b1-3)GlcNAc(b1-3)Gal(b1-4)GlcNAc
In short: as §1

[20] = target: Gal(b1-3)GlcNAc(b1-3)Gal(b1-4)GlcNAc(b1-2)Man(a1-3)[Gal(b1-3)GlcNAc(b1-3)Gal(b1-4)GlcNAc(b1-2)Man(a1-6)]Man(b1-4)GlcNAc(b1-4)GlcNAc
In short: as §1

[21] = target: Gal(b1-3)GlcNAc(b1-3)Gal(b1-4)GlcNAc(b1-2)[Gal(b1-3)GlcNAc(b1-3)Gal(b1-4)GlcNAc(b1-6)]Man(a1-6)[Gal(b1-3)GlcNAc(b1-3)Gal(b1-4)GlcNAc(b1-2)Man(a1-3)]Man(b1-4)GlcNAc(b1-4)[Fuc(a1-6)]GlcNAc
In short: as §1

[22] = target: Gal(b1-3)GlcNAc(b1-3)Gal(b1-4)GlcNAc(b1-3)Gal(b1-4)GlcNAc(b1-2)[Gal(b1-3)GlcNAc(b1-3)Gal(b1-4)GlcNAc(b1-3)Gal(b1-4)GlcNAc(b1-6)]Man(a1-6)[Gal(b1-3)GlcNAc(b1-3)Gal(b1-4)GlcNAc(b1-3)Gal(b1-4)GlcNAc(b1-2)Man(a1-3)]Man(b1-4)GlcNAc(b1-4)[Fuc(a1-6)]GlcNAc
In short: as §1

[23] = target: Gal(b1-3)GlcNAc(b1-3)Gal(b1-4)GlcNAc(b1-6)[Gal(b1-3)GlcNAc(b1-3)]Gal(b1-4)Glc
In short: as §1

[24] = target: Gal(b1-3)GlcNAc(b1-3)Gal(b1-4)[Fuc(a1-3)]GlcNAc
In short: as §1

[25] = target: Gal(b1-3)GlcNAc(b1-3)Gal(b1-4)[Fuc(a1-3)]GlcNAc(b1-6)[Gal(b1-3)GlcNAc(b1-3)]Gal(b1-4)Glc
In short: as §1

[26] = target: Gal(b1-3)GlcNAc(b1-3)GalNAc
In short: as §1

[27] = target: Gal(b1-3)GlcNAc(b1-6)Gal(b1-4)GlcNAc
In short: as §1

[28] = target: Gal(b1-3)GlcNAc(b1-6)GalNAc
In short: as §1

[29] = target: Gal(b1-3)GlcNAc(b1-6)[Gal(b1-3)]GalNAc
In short: as §1

Gal(b1-3)GlcNAc6S = target: Gal(b1-3)GlcNAc6S
In short: as §1

[30] = target: Gal(b1-3)[Fuc(a1-4)]GlcNAc
In short: as §1

[31] = target: Gal(b1-3)[Fuc(a1-4)]GlcNAc(b1-2)Man
In short: as §1

[32] = target: Gal(b1-3)[Fuc(a1-4)]GlcNAc(b1-2)Man(a1-3)[Gal(b1-3)[Fuc(a1-4)]GlcNAc(b1-2)Man(a1-6)]Man(b1-4)GlcNAc(b1-4)GlcNAc
In short: as §1

[33] = target: Gal(b1-3)[Fuc(a1-4)]GlcNAc(b1-2)Man(a1-3)[Gal(b1-3)[Fuc(a1-4)]GlcNAc(b1-2)Man(a1-6)]Man(b1-4)GlcNAc(b1-4)[Fuc(a1-6)]GlcNAc
In short: as §1

[34] = target: Gal(b1-3)[Fuc(a1-4)]GlcNAc(b1-3)Gal(b1-3)[Fuc(a1-4)]GlcNAc
In short: as §1

B1: Nictaba (Nicotiana tabacum), Q94EW1 (protein)
chain: MQGQWIAARDLSITWVDNPQYWTWKTVDPNIEVAELRRVAWLDIYGKIETKNLIRKTSYAVYLVFKLTDNPRELERATASLRFVNEVAEGAGIEGTTVFISKKKKLPGELGRFPHLRSDGWLEIKLGEFFNNLGEDGEVEMRLMEINDKTWKSGIIVKGFDIRPN
Gal(a1-4)Gal(b1-4)GlcNAc
  glycan array binding signal (z-score): -0.315
[1]
  glycan array binding signal (z-score): 1.69
[2]
  glycan array binding signal (z-score): -0.26
Gal(a1-4)GlcNAc
  glycan array binding signal (z-score): -0.267
Gal(a1-6)Glc
  glycan array binding signal (z-score): -0.27
Gal(b1-2)Gal
  glycan array binding signal (z-score): -0.291
Gal(b1-3)Gal
  glycan array binding signal (z-score): -0.334
Gal(b1-3)Gal(b1-4)GlcNAc
  glycan array binding signal (z-score): -0.321
[3]
  glycan array binding signal (z-score): 2.31
Gal(b1-3)GalNAc
  glycan array binding signal (z-score): -0.309
[4]
  glycan array binding signal (z-score): -0.285
[5]
  glycan array binding signal (z-score): -0.297
Gal(b1-3)GalNAc(b1-3)Gal
  glycan array binding signal (z-score): -0.387
[6]
  glycan array binding signal (z-score): -0.284
[7]
  glycan array binding signal (z-score): -0.329
[8]
  glycan array binding signal (z-score): -0.294
[9]
  glycan array binding signal (z-score): -0.274
[10]
  glycan array binding signal (z-score): -0.302
Gal(b1-3)GlcNAc
  glycan array binding signal (z-score): -0.296
[11]
  glycan array binding signal (z-score): -0.387
[12]
  glycan array binding signal (z-score): -0.278
Gal(b1-3)GlcNAc(b1-2)Man
  glycan array binding signal (z-score): -0.39
[13]
  glycan array binding signal (z-score): 2.83
[14]
  glycan array binding signal (z-score): 1.15
[15]
  glycan array binding signal (z-score): -0.259
[16]
  glycan array binding signal (z-score): 1.39
[17]
  glycan array binding signal (z-score): -0.276
[18]
  glycan array binding signal (z-score): -0.292
[19]
  glycan array binding signal (z-score): -0.287
[20]
  glycan array binding signal (z-score): 2.07
[21]
  glycan array binding signal (z-score): 0.498
[22]
  glycan array binding signal (z-score): -0.001
[23]
  glycan array binding signal (z-score): -0.267
[24]
  glycan array binding signal (z-score): -0.387
[25]
  glycan array binding signal (z-score): -0.278
[26]
  glycan array binding signal (z-score): -0.277
[27]
  glycan array binding signal (z-score): 0.097
[28]
  glycan array binding signal (z-score): -0.387
[29]
  glycan array binding signal (z-score): -0.381
Gal(b1-3)GlcNAc6S
  glycan array binding signal (z-score): -0.383
[30]
  glycan array binding signal (z-score): -0.271
[31]
  glycan array binding signal (z-score): -0.385
[32]
  glycan array binding signal (z-score): -0.189
[33]
  glycan array binding signal (z-score): 0.117
[34]
  glycan array binding signal (z-score): -0.233
